{
  "source": "the antibiotic and cytotoxicity screens of Wong et al. (2023)",
  "note": "The other results are listed elsewhere or left out.",
  "data": [
    {"system": "HSkMC (human skeletal muscle cells)", "assay": "cytotoxicity call (relative viability < 0.9)", "details": "10 µM", "values": [
      {"smiles": "Cc1noc(C)c1NC(=O)Nc1ccc2c(c1)C(=O)N([C@H](C)CO)C[C@H](C)[C@@H](CN(C)Cc1ccncc1)OCCCC[C@H](C)O2", "cytotoxicity call": "inactive"},
      {"smiles": "CN(C)Cc1cn(CC[C@H]2CC[C@H](NC(=O)Cc3cccnc3)[C@@H](CO)O2)nn1", "cytotoxicity call": "inactive"},
      {"smiles": "COc1ccc(C#Cc2cnc3c(c2)C(=O)N([C@H](C)CO)C[C@H](C)[C@H](CN(C)Cc2ccncc2)O3)cc1OC", "cytotoxicity call": "inactive"},
      {"smiles": "C[C@H](CO)N1C[C@H](C)[C@H](CN(C)Cc2ccc(Cl)c(Cl)c2)OCc2ccccc2-c2c(n(C)c3ccccc23)C1=O", "cytotoxicity call": "inactive"},
      {"smiles": "C[C@H]1CN([C@@H](C)CO)C(=O)c2cc(NC(=O)CCC(F)(F)F)ccc2O[C@@H]1CN(C)C(=O)Nc1cccc2ccccc12", "cytotoxicity call": "inactive"},
      {"smiles": "C[C@@H]1CCCCO[C@H](CN(C)S(=O)(=O)c2cccs2)[C@@H](C)CN([C@H](C)CO)C(=O)c2cc(NC(=O)NC3CCCCC3)ccc2O1", "cytotoxicity call": "inactive"},
      {"smiles": "Cc1ncc[nH]1", "cytotoxicity call": "inactive"},
      {"smiles": "C[C@@H]1CN([C@H](C)CO)C(=O)Cc2cc(NS(=O)(=O)c3cn(C)cn3)ccc2O[C@H]1CN(C)C(=O)NC1CCCCC1", "cytotoxicity call": "inactive"},
      {"smiles": "C[C@@H]1CN([C@H](C)CO)C(=O)c2cc(NC(=O)Cc3ccccc3)ccc2O[C@H]1CN(C)S(=O)(=O)c1ccccc1", "cytotoxicity call": "inactive"},
      {"smiles": "Cc1noc(C)c1S(=O)(=O)Nc1ccc2c(c1)CC(=O)N([C@@H](C)CO)C[C@@H](C)[C@H](CN(C)S(=O)(=O)c1cn(C)cn1)O2", "cytotoxicity call": "inactive"},
      {"smiles": "COc1ccc(NC(=O)Nc2ccc3c(c2)C(=O)N([C@H](C)CO)C[C@H](C)[C@H](CN(C)Cc2ccc(C(=O)O)cc2)OCCCC[C@H](C)O3)cc1", "cytotoxicity call": "inactive"},
      {"smiles": "C[C@@H]1CN([C@@H](C)CO)C(=O)c2cc(NC(=O)CCC(F)(F)F)ccc2O[C@@H](C)CCCCO[C@H]1CN(C)S(=O)(=O)c1ccc(F)cc1", "cytotoxicity call": "inactive"},
      {"smiles": "C[C@@H]1CN([C@@H](C)CO)S(=O)(=O)c2ccc(C#Cc3ccccc3F)cc2O[C@H]1CN(C)C(=O)c1ccc2c(c1)OCO2", "cytotoxicity call": "active"},
      {"smiles": "C[C@H](CO)N1C[C@H](C)[C@@H](CN(C)C(=O)Nc2ccc(C(F)(F)F)cc2)Oc2c(NC(=O)Nc3ccc(C(F)(F)F)cc3)cccc2C1=O", "cytotoxicity call": "active"},
      {"smiles": "C[C@@H]1CN([C@H](C)CO)C(=O)c2cccc(NC(=O)c3ccncc3)c2O[C@@H]1CN(C)S(=O)(=O)c1cn(C)cn1", "cytotoxicity call": "inactive"},
      {"smiles": "COc1ccc(S(=O)(=O)N(C)C[C@H]2OCCCC[C@@H](C)Oc3ccc(NC(=O)Nc4cccc5ccccc45)cc3C(=O)N([C@@H](C)CO)C[C@H]2C)cc1", "cytotoxicity call": "inactive"},
      {"smiles": "C[C@H]1CCCCO[C@@H](CN(C)C(=O)Nc2ccccc2)[C@@H](C)CN([C@@H](C)CO)C(=O)c2cc(NC(=O)c3ccncc3)ccc2O1", "cytotoxicity call": "inactive"},
      {"smiles": "O=C(CCC1CCCC1)N1CCCC1", "cytotoxicity call": "inactive"},
      {"smiles": "COc1ccc(NC(=O)N(C)C[C@@H]2Oc3c(NC(=O)c4cc(C)nn4C)cccc3C(=O)N([C@@H](C)CO)C[C@@H]2C)cc1", "cytotoxicity call": "inactive"},
      {"smiles": "O=C(C[C@@H]1CC[C@H](NC(=O)c2ccc(F)cc2)[C@H](CO)O1)NCc1ccncn1", "cytotoxicity call": "inactive"},
      {"smiles": "C[C@H]1CN([C@@H](C)CO)S(=O)(=O)c2ccc(C#Cc3ccncc3)cc2O[C@@H]1CN(C)C(=O)C1CCC1", "cytotoxicity call": "inactive"},
      {"smiles": "C[C@@H]1CN([C@@H](C)CO)C(=O)CCCn2cc(nn2)CO[C@H]1CN(C)C(=O)C1CC1", "cytotoxicity call": "inactive"},
      {"smiles": "C[C@@H]1CN([C@@H](C)CO)C(=O)Cc2cc(NC(=O)Cn3cnnn3)ccc2O[C@@H]1CN(C)Cc1ccc(C(F)(F)F)cc1", "cytotoxicity call": "inactive"},
      {"smiles": "C[C@H](CO)N1C[C@H](C)[C@@H](CN(C)C(=O)Cc2ccccn2)Oc2ncc(-c3ccc(F)cc3)cc2C1=O", "cytotoxicity call": "inactive"},
      {"smiles": "OC[C@@H](O)[C@@H](O)[C@@H](O)/C=N/Nc1ccccc1", "cytotoxicity call": "inactive"},
      {"smiles": "C[C@H]1CN([C@@H](C)CO)C(=O)c2cc(NS(=O)(=O)c3ccc(Cl)cc3)ccc2O[C@@H]1CN(C)S(=O)(=O)c1cn(C)cn1", "cytotoxicity call": "inactive"},
      {"smiles": "CN(C)CC(=O)N[C@H]1CC[C@@H](CC(=O)NCCN2CCCCC2)O[C@H]1CO", "cytotoxicity call": "inactive"},
      {"smiles": "COc1ccc(NC(=O)N(C)C[C@H]2Oc3ncc(Br)cc3C(=O)N([C@H](C)CO)C[C@@H]2C)cc1", "cytotoxicity call": "inactive"},
      {"smiles": "CC(C)NC(=O)N(C)C[C@@H]1Oc2ccc(NC(=O)c3ccncc3)cc2CC(=O)N([C@H](C)CO)C[C@H]1C", "cytotoxicity call": "inactive"},
      {"smiles": "C[C@@H]1CN([C@H](C)CO)C(=O)c2cccc(NS(=O)(=O)c3ccc(F)cc3)c2O[C@@H]1CN(C)S(=O)(=O)c1cccs1", "cytotoxicity call": "inactive"},
      {"smiles": "CCCCCCCCCC[C@@H](O)[C@H]1C=C[C@@H]2C(=O)N(c3ccccc3)C(=O)[C@@H]2N1Nc1ccc([N+](=O)[O-])cc1", "cytotoxicity call": "active"},
      {"smiles": "C=CC[C@@H](CC(=O)NCCO)C(=O)NC[C@@H](OC(=O)[C@@H](CC=C)CC(=O)OC(C)(C)C)c1ccccc1", "cytotoxicity call": "inactive"},
      {"smiles": "CC(C)NC(=O)N(C)C[C@H]1Oc2ccc(NS(=O)(=O)c3ccc(Cl)cc3)cc2C(=O)N([C@H](C)CO)C[C@H]1C", "cytotoxicity call": "inactive"},
      {"smiles": "C1CC2(CCN1)OCCS2", "cytotoxicity call": "inactive"},
      {"smiles": "Cc1ccc(S(=O)(=O)N2C[C@H](O)COC[C@H]3O[C@H](CC(=O)NCc4ccc(Cl)c(Cl)c4)CC[C@@H]32)cc1", "cytotoxicity call": "inactive"},
      {"smiles": "C[C@@H]1CN([C@@H](C)CO)S(=O)(=O)c2ccc(-c3cccc(F)c3)cc2O[C@H]1CN(C)S(C)(=O)=O", "cytotoxicity call": "inactive"},
      {"smiles": "C[C@@H]1CN([C@H](C)CO)C(=O)Cc2cc(NC(=O)CCN3CCOCC3)ccc2O[C@@H]1CN(C)C(=O)Nc1ccc2c(c1)OCO2", "cytotoxicity call": "inactive"},
      {"smiles": "Cc1noc(C)c1NC(=O)N(C)C[C@H]1Oc2ccc(NS(C)(=O)=O)cc2CC(=O)N([C@@H](C)CO)C[C@H]1C", "cytotoxicity call": "inactive"},
      {"smiles": "COCCNC(=O)C[C@H]1C[C@@H]2c3cc(NC(=O)CN(C)C)ccc3O[C@@H]2[C@H](CO)O1", "cytotoxicity call": "inactive"},
      {"smiles": "CO[C@@H]1CN(C)C(=O)c2ccc(NC(=O)Nc3cccc(F)c3)cc2OC[C@@H](C)N(C(=O)Nc2c(C)noc2C)C[C@@H]1C", "cytotoxicity call": "inactive"}
    ]}
  ]
}
